Screen size: about 48,000 compounds; about 450 (0.94%) were called active. Roughly 19% stayed inconclusive and do not appear here. Calls come from the whole dose curve; as a rule, active = well fitted inhibition curve with a large enough effect; inconclusive = small, poorly fitted or top-dose-only effect; inactive = no such curve, though single readings can be large or run the other way. The list shows a part of the results.
Test: Primary qHTS for Identification of Small Molecule Inhibitors of Huntingtin Promoter Activity; note: nearly all actives have a fitted effect of over 50% in size
Details: HEK293 HTT promoter firefly luciferase reporter (activity 0% = vehicle and -100% = no light), 24 h; series mostly up to 57.5 µM; activity change, negative = inhibition: at the top concentration
Method in brief: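 Firefly luciferase signal from promoter-reporter HEK293 cells was scaled between vehicle (0%) and zero RLU (-100%). Compounds were tested at final concentrations of up to 57.5 uM over 24 h at 37 degrees C. PTC124 at 50 uM final served as control inhibitor.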
Potency is the fitted concentration of half-maximal effect.

Activity change, negative = inhibition, inactive:
COc1cccc(CNC(=O)c2ccc3c(c2)c(C)c(C)n3Cc2ccccc2)c1OC -5.2%
CCCCN(CCCC)CCNC(=O)Cn1nc(C)n2c(cc3sccc32)c1=O -6.15%
CCOC(=O)c1ccccc1NC(=O)CSc1ccc(-c2cccs2)nn1 -22%
Cc1cc(-c2nc3ncccc3o2)ccc1NC(=O)COc1ccccc1C 5.53%
COc1ccc(-c2cc(C(F)(F)F)nc(SCCC(=O)Nc3ccccc3F)n2)cc1 -2.94%
O=C(Cc1ccccc1)NC1CC(=O)N(c2ccccc2)C1 (stereo not drawn) -17.9%
CCc1ccc(Nc2nn(-c3ccc(OC(F)(F)F)cc3)nc2C(C)=O)cc1 1.7%
Cc1ccc(-c2noc(CNS(=O)(=O)c3ccc(F)cc3)n2)cc1 -28.4%
Cn1cc(S(=O)(=O)c2cccc(Cl)c2)c(=O)c2cc(F)c(N3CCN(c4ccc(F)cc4)CC3)cc21 -12.9%
COc1ccccc1N1CCN(C(=O)CN2C(=O)COc3ccc(S(=O)(=O)N4CCCCCC4)cc32)CC1 -14.8%
Cc1cccc(OCC(=O)Nc2nc3c(s2)CC(C(C)(C)C)CC3)c1C (stereo not drawn) -5.68%
Cc1c(NC(=O)c2cc(-c3ccc(F)cc3)on2)c(=O)n(-c2ccccc2)n1C -4.32%
CCN(CC)c1ccc(NC(=O)c2cnc3c(-c4ccccc4)c(C)nn3c2C)c(C)c1 -28.5%
Cc1nnc(N2CCN(C(=O)NC(C)C)CC2)c2nn(-c3ccccc3)c(C)c12 -5.82%
COc1ccc(C)cc1NC(=O)c1ccc2c(SCC(=O)O)c3c(nc2c1)CCCC3 -49.3%
CCOc1ccc(NC(=O)C2CC(=O)N(c3ccc(C(C)C)cc3)C2)cc1 (stereo not drawn) -1.72%
Cn1c(=O)n(-c2ccc3c(c2)OCO3)c2nc(-c3ccccc3)nc(C(N)=O)c21 -8.81%
COc1cccc2c1cc1c(=O)n(CC(=O)N3CCN(c4cccc(C)c4)C(C)C3)nc(C)n12 (stereo not drawn) -2.53%
Cc1cc(C)cc(NC(=O)CSc2cc(C)[nH]c(=O)n2)c1 -0.653%
CCOC(=O)CC(NC(=O)Cn1nnc(-c2ccc(C(F)(F)F)cc2)n1)c1ccc(OC)cc1 (stereo not drawn) -22.9%
CC(=O)Nc1ccc(-c2cc(C(=O)O)c3c(-c4ccccc4)[nH]nc3n2)cc1 -4.76%
COc1ccc(C(=O)N2CCN(Cc3cc(=O)n4nc(-c5ccccc5C)sc4n3)CC2)cc1OC -22.5%
CCCCNC(=O)c1nn(-c2ccc(CC)cc2)nc1CO -4.05%
CC1CCC(NC(=O)c2ccc3c(c2)N(Cc2cccc(Cl)c2)C(=O)c2ccccc2S3(=O)=O)CC1 (stereo not drawn) -12.6%
CCc1ccccc1NC(=O)Cn1nnc(C(=O)NCc2ccccc2Cl)c1N -21.3%
CCN(CC)CC(C)CNC(=O)c1cc(-c2ccc(Br)s2)nc2ccccc12 (stereo not drawn) -17.8%
CCN(CC)CCCNC(=O)CN1C(=O)CCn2nc(-c3cn(C)c4ccccc34)cc21 0%
COc1ccc(-c2nc3c4ccccc4n(CC(=O)N4CCN(c5ccccc5OC)CC4)c(=O)n3n2)cc1 -11%
COc1cccc(-n2c(=O)c3c4c(sc3n(Cc3ccc(C)cc3)c2=O)CCCC4)c1 11.3%
Cc1ccc2nc(-c3ccccc3F)c(Nc3ccc(Cl)cc3)n2c1 -17.8%
Cc1nnc(NC(=O)CSCc2cc(=O)c3cc(Cl)ccc3[nH]2)s1 7.41%
Cc1ccc(C(=O)c2cn(CC(=O)NC3CCCCC3)c3nc(C)ccc3c2=O)cc1 3.64%
Cc1c(C(=O)N2CCCC2)oc2c1-c1nn(CC(=O)NCCCOC(C)C)cc1CC2 -17.9%
O=C(NC1CC(=O)N(c2cccc(F)c2)C1)C1CCCC1 (stereo not drawn) 3.18%
COc1cc(-c2nc(Cn3nnc(C(=O)Nc4ccccc4)c3C)c(C)o2)cc(OC)c1OC -20.4%
COc1ccccc1-n1ncc2c(=O)[nH]c(SCC(=O)Nc3ccc(Cl)cc3)nc21 -32.5%
Cc1ccc(CNC(=O)c2cccn2-c2nnc(N3CCCCC3)s2)cc1 -12.9%
O=C(Nc1cc2c(cc1C(=O)c1ccccc1)OCCO2)c1ccc(Br)cc1 -7.62%
CN(C)CCN(Cc1ccccc1)S(=O)(=O)c1ccc2[nH]c(=O)ccc2c1 -19.8%
O=C(c1cccn1-c1nnc(N2CCCC2)s1)N1CCN(c2ccccc2)CC1 -18.9%
CCOC(=O)COc1ccc2c(C)c(CCN(CC)CC)c(=O)oc2c1Cl 11%
Cc1ccccc1-c1nc(SCC(=O)NCc2ccco2)c2c(=O)n(C)c(=O)n(C)c2n1 15.3%
COc1ccc2oc(=O)c(-c3csc(-c4ccc(Br)cc4)n3)cc2c1 -6.33%
COc1cccc(-n2cc(C(=O)NCCc3ccc(C)cc3)c3ccccc3c2=O)c1 -16.8%
COc1ccc(C2(Nc3cccc(C(=O)O)c3C)C(=O)c3ccccc3C2=O)cc1 -2.77%
O=C(/C=C\c1ccc2c(c1)OCO2)NC1CC(=O)N(c2ccc(Cl)cc2)C1 (stereo not drawn) -2.98%
COc1ccc(-c2csc3nc(-c4ccccc4C)oc(=O)c23)cc1OC -9.93%

Potency, active:
COc1ccc(NS(=O)(=O)c2cc(Br)cc3c2N(C(=O)C2CC2)CC3)cc1OC 5.62 µM

From PubChem BioAssay AID1508623 (National Center for Advancing Translational Sciences (NCATS), 2021)
